# Whole data set: some 33,000 sequences, median “E-score (-0.5 to 0.5)” near -0.01, cut for the highest 2% near 0.26. Some of the results follow.
# Target: Ste12 (UniProt P13574)
# Experiment: PBM E-score (8-mer binding enrichment) (E-score (-0.5 to 0.5)); higher = stronger / more preferred TF binding; most listed sequences are background and not binding sites
# Conditions: protein concentration: 200 nM; construct: GST-DNA-binding domain
# Outline: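 E-scores (a modified Wilcoxon-Mann-Whitney statistic) were assigned by the Universal PBM Analysis Suite to every ungapped eight-base word pooled with its reverse complement. The input came from universal all-10-mer Agilent arrays made double-stranded by primer extension and probed with GST-tagged yeast transcription factors at about 100-200 nM. Fluorescent anti-GST detected bound protein, and masliner normalised the scans.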
row,Sequence,PBM E-score
1,AAGGTGGG,0.0638
2,TGCCCAAA,-0.112
3,CCTGGTGC,0.0112
4,ACGCGTGG,0.0466
5,CCAGACGC,-0.122
6,CAACTAAC,0.121
7,CCTATGGA,-0.203
8,GCGGAGGA,-0.0523
9,AAACGGAA,0.25
10,AAACGTCT,0.195
11,CGTTGTCA,-0.101
12,AAGTGGAT,0.0636
13,CTCCCGGC,0.039
14,ATGCTCGG,-0.0706
15,TTAGTCAA,0.1
16,AGGTCAGA,-0.113
17,AGGTCATG,-0.00176
18,GTATCTGA,-0.0612
19,GATCTGTA,0.0646
20,CGGGTGGC,-0.178
21,CCGTGACA,0.11
22,AGGCTTTG,-0.133

row,Sequence,PBM E-score
1,ATACTTGC,0.0926
2,GCGAGTAC,-0.0768
3,CCTCTAGA,-0.134
4,CTCTGCTC,-0.0678
5,AGCTTAAT,0.0828
6,AGTCAGCA,-0.232
7,ACAGGGGA,-0.00105
8,CCTTGTCC,-0.00908
9,TACGTGGA,-0.205
10,CGTTGAAG,-0.00035
11,CGATCTGC,-0.056
12,GCGAGGTA,-0.0337
13,GTCGATGA,0.0214
14,GACTGGGC,-0.165
15,GAATACTC,-0.041
16,ATACGAGA,-0.187
17,ACGTGGGG,-0.113
18,CAACTGTC,-0.22
19,ATACTTCC,0.0476
20,CCGAGGCC,-0.0822
21,AATGCGGT,-0.0129
22,CCTCCAGA,0.0572

row,Sequence,PBM E-score
1,AGGCAGAT,0.0799
2,AGGTTCCA,-0.0812
3,ACTCGGGG,-0.0945
4,GGACTGTA,-0.226
5,ACATCGCT,-0.099
6,CGGCAAAC,0.134
7,GCTCAGGA,-0.0895
8,AAAGTGTT,0.067
9,ACGAAGTA,-0.151
10,CGTTTTAG,0.215
11,GGACCACA,0.145
12,ATACACCC,0.0615
13,CAAGTGAA,-0.0187
14,TGAACGAA,-0.0515
15,AATATGTA,0.101
16,AGGTTCGC,-0.12
17,ACGACAGG,-0.022
18,ACTCACCC,-0.0964
19,ACTCCGCC,0.0712
20,TAGAACGA,-0.0295
21,CAACGGCG,-0.00445
22,AGTGTTGC,-0.00999

row,Sequence,PBM E-score
1,AAGAGAAG,-0.119
2,AGCGTTGC,-0.169
3,TAATCGCA,0.0803
4,AGTCAGAG,-0.0659
5,TAAATGCA,0.0858
6,GGAGTCCA,-0.128
7,TAATTAAA,0.173
8,ATCATTGG,0.011
9,CATCCCTC,0.115
10,AGCCTACG,-0.0441
11,CATTGGAC,-0.136
12,CGTAAATC,0.0698
13,CGAGGTTA,0.0183
14,CCTTTTTA,0.051
15,TGAGGCCA,-0.00569
16,ACTGTGCA,-0.11
17,ATTAAGCA,0.171
18,CAGTGCTC,-0.0905
19,AAAACCTC,0.207
20,CGCCCTGC,0.0411

# — the supplement of paper PMC3334620
